Measured values taken from patent publication US20200347136A1, “CONSTRAINED CYCLIC PEPTIDES AS INHIBITORS OF THE CD2:CD58 PROTEIN-PROTEIN INTERACTION FOR TREATMENT OF DISEASES AND AUTOIMMUNE DISORDERS” (Board of Supervisors for the University of Louisiana System, priority 2019, published 2020).

System: A549 Red-FLuc lung tumors
Test: experimental metastasis model of lung cancer, A549 Red-FLuc cells
Details: vs vehicle control

## CC[C@H](C)[C@@H]1NC(=O)[C@H](CCCNC(=N)N)NC(=O)C[C@@H](c2cccc3ccccc23)NC(=O)[C@@H]2CSSC[C@H](NC(=O)C[C@@H](c3cccc4ccccc34)NC(=O)[C@H](CCCNC(=N)N)NC(=O)[C@@H]3CCCN3C(=O)[C@@H]3CCCN3C1=O)C(=O)N[C@@H](Cc1ccccc1)C(=O)N1CCC[C@H]1C(=O)N[C@@H](CC(=O)O)C(=O)N[C@@H](CC(=O)O)C(=O)N[C@@H](Cc1ccccc1)C(=O)N2 [SFTI-G5, Cyclo(C(S-X)RIPPR(S-X)CFPDDF)]
  EGFR:HER2 and HER2:HER3 dimerization in lung tumor tissue (PLA): reduction in red fluorescence
